Test results as given in the supplement of paper PMC9135407.
Values joined by “and” are separate entries in the source; they are usually repeats but may differ in a detail not shown here. Equal entries are not always repeated. Structures can show the parent of a compound that is named as a salt. Among all 5,800 compounds or so, about 620 (11%) showed activity.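 Rule for the calls: active = score above a cut-off or among the top three wells of a plate; in these data no inactive exceeds 0.85.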 The entries are a selection whose mix differs from that of the whole data set.

System: primary human hepatic stellate cells (donor 1)
Test: scaled lipid accumulation score (0 = DMSO-like, 1 = nortriptyline-like); higher = stronger HSC inactivation (lipid re-accumulation), active = hit call of the paper
Details: 48 h
[1] = library stock concentration: 10 mM
[2] = library stock concentration: 3.33 mM
[3] = library stock concentration: 80 uM
[4] = library stock concentration: 400 uM
[5] = library stock concentration: 2 mM
[6] = library stock concentration: 1 mM

Structure (SMILES): Cc1ccc(NC(=O)NCCSCc2ccc(CN(C)C)o2)cc1Cl
- scaled lipid accumulation score [1]: active: 0.931

Structure (SMILES): Cc1csc(-c2nnc(Nc3ccc(Oc4ncccc4-c4ccnc(N)n4)cc3)c3ccccc23)c1
- scaled lipid accumulation score [2]: inactive: ≤ 0
- scaled lipid accumulation score [1]: inactive: ≤ 0

Structure (SMILES): Nc1nc2c(ncn2COC(CO)CO)c(=O)[nH]1 [Ganciclovir]
- scaled lipid accumulation score: inactive: ≤ 0
- scaled lipid accumulation score [2]: inactive: ≤ 0
- scaled lipid accumulation score (library stock concentration: 7.8 mM): inactive: ≤ 0
- scaled lipid accumulation score [1]: inactive: ≤ 0 and inactive: ≤ -0.07

Structure (SMILES): c1ccc2c(CCNc3ccc(Nc4ccncc4)cc3)c[nH]c2c1
- scaled lipid accumulation score [3]: inactive: 0.025
- scaled lipid accumulation score [4]: inactive: 0.211
- scaled lipid accumulation score [5]: inactive: 0.167
- scaled lipid accumulation score [2]: inactive: 0.347
- scaled lipid accumulation score [1]: inactive: 0.232 and inactive: 0.843

Structure (SMILES): NCCCCCC(=O)O [6-Aminohexanoic acid]
- scaled lipid accumulation score [1]: inactive: 0.153

Structure (SMILES): NCCCCCC(=O)O
- scaled lipid accumulation score [2]: inactive: ≤ 0
- scaled lipid accumulation score [1]: inactive: ≤ 0

Structure (SMILES): NCCCCCC(=O)O [6-aminocaproic acid]
- scaled lipid accumulation score [1]: inactive: ≤ 0

Structure (SMILES): NCCCCCC(=O)O [Aminocaproic acid]
- scaled lipid accumulation score: inactive: ≤ 0
- scaled lipid accumulation score (library stock concentration: 15.2 mM): inactive: ≤ -0.001

Structure (SMILES): CC(C)CCNC(=O)[C@H](CC(C)C)NC(=O)[C@H]1O[C@@H]1C(=O)O [Loxistatin Acid (E-64C)]
- scaled lipid accumulation score [2]: inactive: ≤ -0.009
- scaled lipid accumulation score [1]: inactive: ≤ 0

Structure (SMILES): CN(C)C(=N)NC(=N)N [Metformin hydrochloride]
- scaled lipid accumulation score: inactive: ≤ 0
- scaled lipid accumulation score [1]: inactive: ≤ -0.027
- scaled lipid accumulation score (library stock concentration: 12.1 mM): inactive: ≤ 0

Structure (SMILES): CN(C)C(=N)NC(=N)N [Metformin]
- scaled lipid accumulation score (library stock concentration: 15.5 mM): inactive: ≤ -0.006

Structure (SMILES): COc1c(C)cnc(Cn2cnc3c(Cl)nc(N)nc32)c1C
- scaled lipid accumulation score [1]: inactive: 0.768

Structure (SMILES): CC=CC(=O)N(CC)c1ccccc1C [Crotamiton]
- scaled lipid accumulation score: inactive: ≤ 0
- scaled lipid accumulation score [1]: inactive: ≤ -0.027

Structure (SMILES): c1cn2cc(-c3ccc4cn[nH]c4c3)nc(Nc3ccc(N4CCOCC4)cc3)c2n1
- scaled lipid accumulation score [2]: active: 1.04
- scaled lipid accumulation score [1]: active: 0.944

Structure (SMILES): CC1=C(C)C(=O)C(C(CCCCCC(=O)O)c2ccccc2)=C(C)C1=O (centres undefined)
- scaled lipid accumulation score [1]: inactive: ≤ 0

Structure (SMILES): CC(C)Oc1ccc(-c2cnc3c(-c4ccnc5ccccc45)cnn3c2)cc1
- scaled lipid accumulation score [2]: inactive: ≤ -0.009
- scaled lipid accumulation score [1]: inactive: ≤ 0

Structure (SMILES): CNCCCN1c2ccccc2CCc2ccccc21.Cl [Desipramine hydrochloride]
- scaled lipid accumulation score: active: 0.887

Structure (SMILES): Cn1ncnc1[C@H]1c2n[nH]c(=O)c3cc(F)cc(c23)N[C@@H]1c1ccc(F)cc1
- scaled lipid accumulation score [2]: inactive: ≤ 0
- scaled lipid accumulation score [1]: inactive: ≤ -0.001

Structure (SMILES): C=CCN(C)CCCCCCOc1ccc(C(=O)c2ccc(Br)cc2)c(F)c1
- scaled lipid accumulation score [6]: inactive: 0.116

Structure (SMILES): CC(=O)O[C@]1(C(C)=O)CC[C@H]2[C@@H]3C=C(Cl)C4=CC(=O)CC[C@]4(C)[C@H]3CC[C@@]21C [Chlormadinone acetate]
- scaled lipid accumulation score (library stock concentration: 4.5 mM): inactive: 0.064
- scaled lipid accumulation score (library stock concentration: 4.9 mM): inactive: 0.08

Structure (SMILES): CCN(CC)C(C)CN1c2ccccc2Sc2ccccc21 (centres undefined) [Ethopropazine hydrochloride]
- scaled lipid accumulation score: inactive: 0.644
- scaled lipid accumulation score (library stock concentration: 5.7 mM): inactive: 0.667
- scaled lipid accumulation score [1]: inactive: 0.301 and inactive: 0.673

Structure (SMILES): CCCNC(=O)NS(=O)(=O)c1ccc(Cl)cc1
- scaled lipid accumulation score [1]: inactive: ≤ 0

Structure (SMILES): CCCNC(=O)NS(=O)(=O)c1ccc(Cl)cc1 [Chlorpropamide]
- scaled lipid accumulation score: inactive: ≤ 0
- scaled lipid accumulation score [2]: inactive: ≤ 0
- scaled lipid accumulation score (library stock concentration: 7.2 mM): inactive: 0.007
- scaled lipid accumulation score [1]: inactive: 0.001 and inactive: ≤ 0

Structure (SMILES): Cl.Nc1ccc(C(=O)Nc2cccc(-c3nc(N4CCOCC4)c4oc5ncccc5c4n3)c2)cn1
- scaled lipid accumulation score [5]: active: 1.74
- scaled lipid accumulation score [1]: active: 1.25

Structure (SMILES): Cc1cc(O)c(C(=O)N[C@@H](C(=O)N[C@@H]2C(=O)N3C(C(=O)O)=C(CSc4nnnn4C)CS[C@H]23)c2ccc(O)cc2)cn1
- scaled lipid accumulation score [1]: inactive: ≤ 0

Structure (SMILES): COc1cc(-c2ncn(/C=C\C(=O)OC(C)C)n2)cc(C(F)(F)F)c1
- scaled lipid accumulation score [2]: inactive: ≤ -0.009
- scaled lipid accumulation score [1]: inactive: ≤ 0

Structure (SMILES): N=C(N)NCCCCNC(=N)N [Arcaine sulfate]
- scaled lipid accumulation score: inactive: ≤ 0
- scaled lipid accumulation score [1]: inactive: ≤ 0

Structure (SMILES): CCN(CC)c1ccc(/C=N/NC(=O)c2ccc(O)cc2)cc1
- scaled lipid accumulation score [1]: inactive: ≤ -0.001

Structure (SMILES): CO[C@H]1/C=C/O[C@@]2(C)Oc3c(C)c(O)c4c(O)c(c5c(nc6cc(C)ccn65)c4c3C2=O)NC(=O)/C(C)=C\C=C\[C@H](C)[C@H](O)[C@@H](C)[C@@H](O)[C@@H](C)[C@H](OC(C)=O)[C@@H]1C [Rifaximin]
- scaled lipid accumulation score [2]: inactive: ≤ 0
- scaled lipid accumulation score [1]: inactive: ≤ 0

Structure (SMILES): CO[C@H]1/C=C/O[C@@]2(C)Oc3c(C)c(O)c4c(O)c(c5c(nc6cc(C)ccn65)c4c3C2=O)NC(=O)/C(C)=C\C=C\[C@H](C)[C@H](O)[C@@H](C)[C@@H](O)[C@@H](C)[C@H](OC(C)=O)[C@@H]1C
- scaled lipid accumulation score [1]: inactive: ≤ 0

Structure (SMILES): O=C1[C@H]2CCCC[C@H]2C(=O)N1CCCCN1CCN(c2nsc3ccccc23)CC1
- scaled lipid accumulation score [1]: inactive: 0.113

Structure (SMILES): Clc1cccc(Cl)c1NC1=NCCN1
- scaled lipid accumulation score [1]: inactive: ≤ 0

Structure (SMILES): Clc1cccc(Cl)c1NC1=NCCN1 [Clonidine]
- scaled lipid accumulation score (library stock concentration: 21.7 mM): inactive: 0.047

Structure (SMILES): Clc1cccc(Cl)c1NC1=NCCN1 [Clonidine HCl]
- scaled lipid accumulation score [2]: inactive: ≤ 0
- scaled lipid accumulation score (library stock concentration: 8.7 mM): inactive: 0.036
- scaled lipid accumulation score [1]: inactive: ≤ 0

Structure (SMILES): Clc1cccc(Cl)c1NC1=NCCN1 [Clonidine hydrochloride]
- scaled lipid accumulation score: inactive: ≤ 0
- scaled lipid accumulation score (library stock concentration: 7.5 mM): inactive: ≤ 0
- scaled lipid accumulation score [1]: inactive: ≤ 0 and inactive: 0.047

Structure (SMILES): Cc1cc(C(C)(C)C)cc(C)c1CC1=NCCN1 [Xylometazoline hydrochloride]
- scaled lipid accumulation score: inactive: 0.431
- scaled lipid accumulation score (library stock concentration: 7.1 mM): inactive: 0.382
- scaled lipid accumulation score [1]: inactive: 0.155 and inactive: 0.049

Structure (SMILES): Cc1cc(C(C)(C)C)cc(C)c1CC1=NCCN1 [Xylometazoline HCl]
- scaled lipid accumulation score [2]: inactive: 0.103
- scaled lipid accumulation score [1]: inactive: 0.418

Structure (SMILES): CCN(CC)C(=O)C1(c2ccccc2)CC1CN (centres undefined) [Milnacipran]
- scaled lipid accumulation score [1]: inactive: ≤ 0

Structure (SMILES): CCN(CC)C(=O)C1(c2ccccc2)CC1CN (centres undefined)
- scaled lipid accumulation score [1]: inactive: ≤ 0

Structure (SMILES): CCN(CC)C(=O)C1(c2ccccc2)CC1CN (centres undefined) [Milnacipran HCl]
- scaled lipid accumulation score [2]: inactive: ≤ 0
- scaled lipid accumulation score [1]: inactive: ≤ -0.001

Structure (SMILES): CCN(CCCCOC(=O)c1ccc(OC)c(OC)c1)C(C)Cc1ccc(OC)cc1 (centres undefined) [Mebeverine hydrochloride]
- scaled lipid accumulation score: inactive: 0.362
- scaled lipid accumulation score [1]: inactive: ≤ 0

Structure (SMILES): O=c1[nH]ccc2c(O)cccc12 [1,5-Isoquinolinediol]
- scaled lipid accumulation score [1]: inactive: ≤ -0.055

Structure (SMILES): O=c1cc(-c2ccccc2F)[nH]c2cc3c(cc12)OCO3 [CHM-1 hydrate]
- scaled lipid accumulation score [1]: active: 0.875

Structure (SMILES): CCN1CCN(Cc2ccc(Nc3ncc(F)c(-c4cc(F)c5nc(C)n(C(C)C)c5c4)n3)nc2)CC1 [Abemaciclib]
- scaled lipid accumulation score [5]: active: 0.882

Structure (SMILES): CC(C)(CO)[C@@H](O)C(=O)NCCC(=O)O [Pantothenic acid calcium salt monohydrate]
- scaled lipid accumulation score: inactive: 0.031

Structure (SMILES): CC(C)(CO)[C@@H](O)C(=O)NCCC(=O)O [D-Pantothenic acid]
- scaled lipid accumulation score [2]: inactive: ≤ 0
- scaled lipid accumulation score [1]: inactive: ≤ 0

Structure (SMILES): CC(C)(CO)[C@@H](O)C(=O)NCCC(=O)O [Pantothenic acid(d) na salt]
- scaled lipid accumulation score (library stock concentration: 8.3 mM): inactive: ≤ 0

Structure (SMILES): CC(C)(CO)[C@@H](O)C(=O)NCCC(=O)O [Pantothenic acid]
- scaled lipid accumulation score (library stock concentration: 9.1 mM): inactive: 0.053

Structure (SMILES): O=c1nc2ccccc2c2n1CC(CN1CCN(c3ccccc3)CC1)N2 (centres undefined)
- scaled lipid accumulation score [1]: inactive: 0.112

Structure (SMILES): O=C(c1cc(O)c(O)c([N+](=O)[O-])c1)c1ccccc1F
- scaled lipid accumulation score [1]: inactive: ≤ 0

Structure (SMILES): CC#CCn1c(N2CCC[C@@H](N)C2)nc2c1c(=O)n(Cc1nc(C)c3ccccc3n1)c(=O)n2C [Linagliptin]
- scaled lipid accumulation score [2]: inactive: ≤ 0
- scaled lipid accumulation score [1]: inactive: ≤ 0

Structure (SMILES): CC/C=C/C[C@H](O)/C=C/[C@H]1[C@H](O)CC(=O)[C@@H]1C/C=C\CCCC(=O)O [17-trans Prostaglandin E3]
- scaled lipid accumulation score [6]: inactive: ≤ 0

Structure (SMILES): C[C@@H]1C[C@H]2[C@@H]3CCC4=CC(=O)C=C[C@]4(C)[C@@]3(F)[C@@H](O)C[C@]2(C)[C@H]1C(=O)CO
- scaled lipid accumulation score [1]: inactive: ≤ 0

Structure (SMILES): CCN(CC)CCOCCOC(=O)C1(c2ccccc2)CCCC1 [Pentoxyverine Citrate]
- scaled lipid accumulation score [2]: inactive: ≤ 0
- scaled lipid accumulation score [1]: inactive: 0.424

Structure (SMILES): CCN(CC)CCOCCOC(=O)C1(c2ccccc2)CCCC1 [Carbetapentane citrate]
- scaled lipid accumulation score: inactive: 0.595
- scaled lipid accumulation score [1]: inactive: 0.72 and inactive: 0.014 and inactive: 0.411

Structure (SMILES): COc1cc(OC)c2ccc(=O)oc2c1 [Citropten]
- scaled lipid accumulation score [1]: inactive: ≤ 0

Structure (SMILES): CNC(=O)c1ccc(N2C(=S)N(c3ccc(C#N)c(C(F)(F)F)c3)C(=O)C2(C)C)cc1F [Enzalutamide]
- scaled lipid accumulation score [3]: inactive: ≤ -0.016
- scaled lipid accumulation score [4]: inactive: ≤ -0.016
- scaled lipid accumulation score [5]: inactive: ≤ -0.016
- scaled lipid accumulation score [1]: inactive: ≤ -0.016

Structure (SMILES): CNC(=O)c1ccc(N2C(=S)N(c3ccc(C#N)c(C(F)(F)F)c3)C(=O)C2(C)C)cc1F [Enzalutamide (MDV3100)]
- scaled lipid accumulation score [2]: inactive: 0.025
- scaled lipid accumulation score [1]: inactive: ≤ 0

Structure (SMILES): O=C(CCBr)N1CCN(C(=O)CCBr)CC1 [Pipobroman]
- scaled lipid accumulation score [1]: inactive: ≤ -0.027

Structure (SMILES): CCCCC1C(=O)N(c2ccccc2)N(c2ccc(O)cc2)C1=O (centres undefined) [Oxyphenbutazone]
- scaled lipid accumulation score: inactive: 0.3
- scaled lipid accumulation score (library stock concentration: 6.2 mM): inactive: 0.785
- scaled lipid accumulation score [1]: inactive: ≤ 0

Structure (SMILES): N[C@H]1CONC1=O [(S)-(-)-Cycloserine]
- scaled lipid accumulation score: inactive: ≤ 0

Structure (SMILES): N[C@H]1CONC1=O [L-Cycloserine]
- scaled lipid accumulation score [1]: inactive: 0.082

Structure (SMILES): N[C@H]1CONC1=O
- scaled lipid accumulation score [1]: inactive: ≤ 0

Structure (SMILES): COc1cc(OC)c(NC(=O)Nc2cc(C)on2)cc1Cl
- scaled lipid accumulation score [2]: inactive: ≤ 0
- scaled lipid accumulation score [1]: inactive: ≤ 0 and inactive: 0.398

Structure (SMILES): CCCc1ccc(OCC(=O)N(Cc2nc(-c3cccnc3)no2)C(C)C)cc1
- scaled lipid accumulation score [2]: inactive: ≤ -0.009
- scaled lipid accumulation score [1]: inactive: 0.353

Structure (SMILES): CC(C)NCCCn1c(Sc2cc3c(cc2I)OCO3)nc2c(N)ncnc21
- scaled lipid accumulation score [1]: active: 0.881
